Results reported in patent US20240417485A1 (UNIVERSITY OF PITTSBURGH OF THE COMMONWEALTH SYSTEM OF …, published 2024).

Molecular target: T1, recombinant uPAR-Biotin (human, UniProt Q03405 23-303, limits assumed, biotin, site not stated)
T1 construct: also called human uPAR (BLItz)
Experiment: BLItz, uPAR-Biotin on streptavidin biosensor

T1 sequence (Q03405 23-303 limits assumed): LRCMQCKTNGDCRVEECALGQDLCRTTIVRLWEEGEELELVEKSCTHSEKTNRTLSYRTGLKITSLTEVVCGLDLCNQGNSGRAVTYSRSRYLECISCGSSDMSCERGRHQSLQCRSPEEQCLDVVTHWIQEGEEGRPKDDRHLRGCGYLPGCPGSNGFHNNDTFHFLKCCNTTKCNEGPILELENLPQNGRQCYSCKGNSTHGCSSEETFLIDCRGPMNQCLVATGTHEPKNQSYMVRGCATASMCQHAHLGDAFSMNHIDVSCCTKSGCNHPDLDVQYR

Kd [nM] | koff [s⁻¹] | kon [M⁻¹ s⁻¹] | Binder
71.1 | 0.0024 | 33000 | VH-Fc 115 (Fc fusion) EVQLVESGGGLVQPGGSLRLSCKGSGFTFGDYAIGWVRQAPGQRLEWIGWINTNSGSPKYAQGFTGRFTISRDNSKNTLYLQMNSLRAEDTAVYYCATDVVVPWGQGSQVTVSSSG[skipping human IgG1 Fc]
9.6 | 0.0012 | 120000 | VH-Fc 3 (Fc fusion) EVQLVESGGGLVQPGGSLRLSCAASGFTFSRYWMSWVRQAPGKALEWIGEINHSGSTNYNPSLKSLVTISRDNSKNTLYLQMNSLRAEDTATYYCARSLVPALSYYYYYGMDVWGQGTTVTVSSSG[skipping human IgG1 Fc]
